# Measurements as given in the supplement of paper PMC8728848.
# The other results are listed elsewhere or left out.
# B1: Sebin1 (Coprinopsis cinerea), A8PEE3 (protein)
# chain: MTSPFYAHIHNVQDDNTWRFTLIFANRATADEWWRAISEAPANTSIAKSITRVTPQYYTHDVNIWNIWNFFADGNIKSISERFRGRLFIVLENDRGGRGITVIPPVPIVDHVSGNWFYIRSKTAPHLFWYYDERRSSIYASKEKRTRFKISIRNPSSQTPKNAIMINTDDVTIHIKENLYVGVDNNLGHIIPTRAYRTFKFGELESGAIAGFDVVENIEERCSSTFDGASLSISGPDSSSPGEPWELV
# Experiments:
# Assay in all cases: glycan array binding signal (z-score within array); higher = stronger binding
# Conditions in all cases: glycan notation: IUPAC condensed, linker removed
# [1] = molecular target: Gal(b1-3)GalNAc(b1-3)Gal
# Procedure, shortened: (§1)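 Arrays were curated from the Consortium for Functional Glycomics database, 3228 in total, and kept only where the protein sequence was available. Binding is expressed as a within-array Z-score. This score was averaged across arrays of the same protein sequence at different concentrations or buffers and across linkers, and negative values can be read as non-binding.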
# [2] = molecular target: Gal(b1-3)GalNAc(b1-3)Gal(a1-4)Gal(b1-4)Glc
# Procedure, shortened: as §1
# [3] = molecular target: Gal(b1-3)GalNAc(b1-4)Gal(b1-4)Glc
# Procedure, shortened: as §1
# [4] = molecular target: Gal(b1-3)GalNAc(b1-4)[Neu5Ac(a2-3)]Gal(b1-4)Glc
# Procedure, shortened: as §1
# [5] = molecular target: Gal(b1-3)GlcNAc
# Procedure, shortened: as §1
# [6] = molecular target: Gal(b1-3)GlcNAc(a1-3)Gal(b1-4)GlcNAc
# Procedure, shortened: as §1
# [7] = molecular target: Gal(b1-3)GlcNAc(a1-6)Gal(b1-4)GlcNAc
# Procedure, shortened: as §1
# [8] = molecular target: Gal(b1-3)GlcNAc(b1-2)Man
# Procedure, shortened: as §1
# [9] = molecular target: Gal(b1-3)GlcNAc(b1-2)Man(a1-3)[Gal(b1-3)GlcNAc(b1-2)Man(a1-6)]Man(b1-4)GlcNAc(b1-4)GlcNAc
# Procedure, shortened: as §1
# [10] = molecular target: Gal(b1-3)GlcNAc(b1-2)Man(a1-3)[Gal(b1-3)GlcNAc(b1-2)Man(a1-6)]Man(b1-4)GlcNAc(b1-4)[Fuc(a1-6)]GlcNAc
# Procedure, shortened: as §1
# [11] = molecular target: Gal(b1-3)GlcNAc(b1-2)Man(a1-3)[GlcNAc(b1-4)][Gal(b1-3)GlcNAc(b1-2)Man(a1-6)]Man(b1-4)GlcNAc(b1-4)GlcNAc
# Procedure, shortened: as §1
# [12] = molecular target: Gal(b1-3)GlcNAc(b1-2)[Gal(b1-3)GlcNAc(b1-6)]Man(a1-6)[Gal(b1-3)GlcNAc(b1-2)Man(a1-3)]Man(b1-4)GlcNAc(b1-4)GlcNAc
# Procedure, shortened: as §1
# [13] = molecular target: Gal(b1-3)GlcNAc(b1-3)Gal(b1-3)GlcNAc
# Procedure, shortened: as §1
# [14] = molecular target: Gal(b1-3)GlcNAc(b1-3)Gal(b1-4)Glc
# Procedure, shortened: as §1
# [15] = molecular target: Gal(b1-3)GlcNAc(b1-3)Gal(b1-4)GlcNAc
# Procedure, shortened: as §1
# [16] = molecular target: Gal(b1-3)GlcNAc(b1-3)Gal(b1-4)GlcNAc(b1-2)Man(a1-3)[Gal(b1-3)GlcNAc(b1-3)Gal(b1-4)GlcNAc(b1-2)Man(a1-6)]Man(b1-4)GlcNAc(b1-4)GlcNAc
# Procedure, shortened: as §1
# [17] = molecular target: Gal(b1-3)GlcNAc(b1-3)Gal(b1-4)GlcNAc(b1-2)[Gal(b1-3)GlcNAc(b1-3)Gal(b1-4)GlcNAc(b1-6)]Man(a1-6)[Gal(b1-3)GlcNAc(b1-3)Gal(b1-4)GlcNAc(b1-2)Man(a1-3)]Man(b1-4)GlcNAc(b1-4)[Fuc(a1-6)]GlcNAc
# Procedure, shortened: as §1
# [18] = molecular target: Gal(b1-3)GlcNAc(b1-3)Gal(b1-4)GlcNAc(b1-3)Gal(b1-4)GlcNAc(b1-2)[Gal(b1-3)GlcNAc(b1-3)Gal(b1-4)GlcNAc(b1-3)Gal(b1-4)GlcNAc(b1-6)]Man(a1-6)[Gal(b1-3)GlcNAc(b1-3)Gal(b1-4)GlcNAc(b1-3)Gal(b1-4)GlcNAc(b1-2)Man(a1-3)]Man(b1-4)GlcNAc(b1-4)[Fuc(a1-6)]GlcNAc
# Procedure, shortened: as §1
# [19] = molecular target: Gal(b1-3)GlcNAc(b1-3)Gal(b1-4)GlcNAc(b1-6)[Gal(b1-3)GlcNAc(b1-3)]Gal(b1-4)Glc
# Procedure, shortened: as §1
# [20] = molecular target: Gal(b1-3)GlcNAc(b1-3)Gal(b1-4)[Fuc(a1-3)]GlcNAc
# Procedure, shortened: as §1
# [21] = molecular target: Gal(b1-3)GlcNAc(b1-3)Gal(b1-4)[Fuc(a1-3)]GlcNAc(b1-6)[Gal(b1-3)GlcNAc(b1-3)]Gal(b1-4)Glc
# Procedure, shortened: as §1
# [22] = molecular target: Gal(b1-3)GlcNAc(b1-3)GalNAc
# Procedure, shortened: as §1
# [23] = molecular target: Gal(b1-3)GlcNAc(b1-6)Gal(b1-4)GlcNAc
# Procedure, shortened: as §1
# [24] = molecular target: Gal(b1-3)GlcNAc(b1-6)GalNAc
# Procedure, shortened: as §1
# [25] = molecular target: Gal(b1-3)GlcNAc(b1-6)[Gal(b1-3)]GalNAc
# Procedure, shortened: as §1
# [26] = molecular target: Gal(b1-3)GlcNAc6S
# Procedure, shortened: as §1
# [27] = molecular target: Gal(b1-3)[Fuc(a1-4)]GlcNAc
# Procedure, shortened: as §1
# [28] = molecular target: Gal(b1-3)[Fuc(a1-4)]GlcNAc(b1-2)Man
# Procedure, shortened: as §1
# [29] = molecular target: Gal(b1-3)[Fuc(a1-4)]GlcNAc(b1-2)Man(a1-3)[Gal(b1-3)[Fuc(a1-4)]GlcNAc(b1-2)Man(a1-6)]Man(b1-4)GlcNAc(b1-4)[Fuc(a1-6)]GlcNAc
# Procedure, shortened: as §1
# [30] = molecular target: Gal(b1-3)[Fuc(a1-4)]GlcNAc(b1-3)Gal(b1-3)[Fuc(a1-4)]GlcNAc
# Procedure, shortened: as §1
# [31] = molecular target: Gal(b1-3)[Fuc(a1-4)]GlcNAc(b1-3)Gal(b1-4)[Fuc(a1-3)]GlcNAc
# Procedure, shortened: as §1
# [32] = molecular target: Gal(b1-3)[Fuc(a1-4)]GlcNAc(b1-6)GalNAc
# Procedure, shortened: as §1
# [33] = molecular target: Gal(b1-3)[GlcNAc(b1-6)]GalNAc
# Procedure, shortened: as §1
# [34] = molecular target: Gal(b1-3)[Neu5Ac(a2-6)]GalNAc
# Procedure, shortened: as §1
# [35] = molecular target: Gal(b1-3)[Neu5Ac(a2-6)]GlcNAc(b1-4)Gal(b1-4)Glc
# Procedure, shortened: as §1
# [36] = molecular target: Gal(b1-3)[Neu5Ac(b2-6)]GalNAc
# Procedure, shortened: as §1
# [37] = molecular target: Gal(b1-4)Gal
# Procedure, shortened: as §1
# [38] = molecular target: Gal(b1-4)GalNAc(a1-3)[Fuc(a1-2)]Gal(b1-4)GlcNAc
# Procedure, shortened: as §1
binder,measurement,setting,value
B1,glycan array binding signal (z-score),[1],-0.108
same,glycan array binding signal (z-score),[2],0.187
same,glycan array binding signal (z-score),[3],-0.364
same,glycan array binding signal (z-score),[4],-0.607
same,glycan array binding signal (z-score),[5],-0.574
same,glycan array binding signal (z-score),[6],-0.485
same,glycan array binding signal (z-score),[7],-0.03
same,glycan array binding signal (z-score),[8],-0.244
same,glycan array binding signal (z-score),[9],-0.529
same,glycan array binding signal (z-score),[10],-0.025
same,glycan array binding signal (z-score),[11],2.39
same,glycan array binding signal (z-score),[12],0.275
same,glycan array binding signal (z-score),[13],0.162
same,glycan array binding signal (z-score),[14],-0.671
same,glycan array binding signal (z-score),[15],-0.578
same,glycan array binding signal (z-score),[16],-0.1
same,glycan array binding signal (z-score),[17],-0.288
same,glycan array binding signal (z-score),[18],1.74
same,glycan array binding signal (z-score),[19],-0.03
same,glycan array binding signal (z-score),[20],-0.141
same,glycan array binding signal (z-score),[21],0.307
same,glycan array binding signal (z-score),[22],-0.277
same,glycan array binding signal (z-score),[23],-0.432
same,glycan array binding signal (z-score),[24],0.44
same,glycan array binding signal (z-score),[25],0.75
same,glycan array binding signal (z-score),[26],-0.158
same,glycan array binding signal (z-score),[27],-0.514
same,glycan array binding signal (z-score),[28],0.391
same,glycan array binding signal (z-score),[29],0.303
same,glycan array binding signal (z-score),[30],0.077
same,glycan array binding signal (z-score),[31],-0.476
same,glycan array binding signal (z-score),[32],0.36
same,glycan array binding signal (z-score),[33],-0.363
same,glycan array binding signal (z-score),[34],0.26
same,glycan array binding signal (z-score),[35],0.647
same,glycan array binding signal (z-score),[36],-0.121
same,glycan array binding signal (z-score),[37],-0.142
same,glycan array binding signal (z-score),[38],-0.27
